From the BET-seq Pho4 binding data (Le et al. 2018)
Some of the results follow. These are noisy estimates, calculated here from bound and input reads.

The sequences below were run against T1, Pho4 (S. cerevisiae) (UniProt P07270) (assay: relative binding free energy (BET-seq); higher = weaker binding). Conditions: reference: library average.
T1 sequence: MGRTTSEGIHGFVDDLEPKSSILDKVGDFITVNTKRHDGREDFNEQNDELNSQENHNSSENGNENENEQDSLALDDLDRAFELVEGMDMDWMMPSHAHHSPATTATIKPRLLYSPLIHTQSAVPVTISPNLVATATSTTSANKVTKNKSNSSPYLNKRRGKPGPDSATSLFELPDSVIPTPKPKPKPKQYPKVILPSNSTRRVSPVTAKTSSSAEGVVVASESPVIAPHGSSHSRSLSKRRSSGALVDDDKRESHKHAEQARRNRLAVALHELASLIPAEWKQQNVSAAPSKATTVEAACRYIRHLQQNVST

Sequence | relative binding free energy
TGGGGCACGTGGCGGG | -0.18 kcal/mol
GTGGTCACGTGCAGAT | 0.09 kcal/mol
TATGGCACGTGTGCTG | 0 kcal/mol
TCTTTCACGTGTATGG | 0.2 kcal/mol
AGGATCACGTGCGGTT | 0.27 kcal/mol
TTAGGCACGTGAGTTT | 0.1 kcal/mol
AATTTCACGTGAGATT | 0.32 kcal/mol
CTTATCACGTGGGGAG | 0.06 kcal/mol
GAGTGCACGTGGGAGA | -0.08 kcal/mol
AAGATCACGTGCGGGG | 0.14 kcal/mol
AGTTACACGTGTAGGT | 0.12 kcal/mol
TGTTACACGTGTTCTA | 0.08 kcal/mol
TGGCCCACGTGAGGTT | 0.37 kcal/mol
ATGAGCACGTGGTTAT | -0.12 kcal/mol
TGAGTCACGTGAGCTT | 0.39 kcal/mol
AGTTTCACGTGCCGTT | 0.21 kcal/mol
TCGAGCACGTGGGGAT | -0.12 kcal/mol
GAGGTCACGTGGTGTA | 0.12 kcal/mol
GGAATCACGTGATTGT | 0.28 kcal/mol
TCTCACACGTGGTGTT | 0.06 kcal/mol
GGGTGCACGTGGAATC | 0.06 kcal/mol

Sequence | relative binding free energy
AGTTTCACGTGATGAT | 0.29 kcal/mol
CGCGGCACGTGTGGTA | 0.01 kcal/mol
GCCGGCACGTGGGAGG | -0.22 kcal/mol
ATGGTCACGTGAAGAA | 0.42 kcal/mol
TTTGGCACGTGAAAAT | 0.1 kcal/mol
TTATTCACGTGTCTGA | 0.16 kcal/mol
GTTAGCACGTGAGTGA | 0.11 kcal/mol
ATAGACACGTGTAGGT | 0.12 kcal/mol
GTTCTCACGTGGGCAT | 0.16 kcal/mol
ATCGTCACGTGAATGG | 0.33 kcal/mol
TGGTGCACGTGATTCA | 0.07 kcal/mol
AGTCACACGTGTATGT | 0.03 kcal/mol
TTTGACACGTGTAGGT | 0.1 kcal/mol
TGGGACACGTGATCGG | 0.17 kcal/mol
GGGGGCACGTGGATTA | 0.03 kcal/mol
TGAGTCACGTGTGGGC | 0.16 kcal/mol
TAGGGCACGTGTTAGG | -0.16 kcal/mol
TGGTGCACGTGAACGT | 0.3 kcal/mol
TAGGTCACGTGTTCCT | 0.08 kcal/mol
ATGGGCACGTGGTAAG | -0.09 kcal/mol
ATGAGCACGTGGTTCG | -0.11 kcal/mol

Sequence | relative binding free energy
GGGTCCACGTGTGCGG | 0 kcal/mol
CGAAGCACGTGAAGGG | 0.22 kcal/mol
ATTTACACGTGGGTGA | 0.08 kcal/mol
GCATACACGTGTTGTT | 0.25 kcal/mol
GTGTCCACGTGGGTAA | -0.12 kcal/mol
TAGTGCACGTGGCTTA | -0.18 kcal/mol
TGCGTCACGTGTGACG | 0.15 kcal/mol
GGTTCCACGTGAAGTT | 0.41 kcal/mol
GGAGTCACGTGAATGG | 0.25 kcal/mol
TCTGTCACGTGAGTAG | 0.27 kcal/mol
TAATACACGTGGAGGA | 0.01 kcal/mol
TGGGGCACGTGGCGAA | -0.24 kcal/mol
TGCGGCACGTGGTACT | -0.2 kcal/mol
AGGTCCACGTGTTATG | 0.04 kcal/mol
TGTGTCACGTGGTCTG | 0.16 kcal/mol
TGGAACACGTGGAAGT | 0.11 kcal/mol
TATTCCACGTGGTATG | -0.06 kcal/mol
CAAGTCACGTGATTTT | 0.31 kcal/mol
CTTTTCACGTGTTGAT | 0.12 kcal/mol
TTGTTCACGTGGCTGG | 0.2 kcal/mol
TTATTCACGTGTCCGT | 0.23 kcal/mol
